Source: article PMC7838300
These are yes or no findings as the source states them, for the method shown. Binding seen in cells or lysates may run through a third protein. Some entries that bind do so weakly or less than the wild type.

Sequences of proteins named here, by UniProt entry; tags and fusion partners are left off. A change or cut given only in a name is not applied to a line headed by its entry. A line that says so, or that is headed by a name, gives the form on record, which may keep a tag or linker.
UniProt P27694: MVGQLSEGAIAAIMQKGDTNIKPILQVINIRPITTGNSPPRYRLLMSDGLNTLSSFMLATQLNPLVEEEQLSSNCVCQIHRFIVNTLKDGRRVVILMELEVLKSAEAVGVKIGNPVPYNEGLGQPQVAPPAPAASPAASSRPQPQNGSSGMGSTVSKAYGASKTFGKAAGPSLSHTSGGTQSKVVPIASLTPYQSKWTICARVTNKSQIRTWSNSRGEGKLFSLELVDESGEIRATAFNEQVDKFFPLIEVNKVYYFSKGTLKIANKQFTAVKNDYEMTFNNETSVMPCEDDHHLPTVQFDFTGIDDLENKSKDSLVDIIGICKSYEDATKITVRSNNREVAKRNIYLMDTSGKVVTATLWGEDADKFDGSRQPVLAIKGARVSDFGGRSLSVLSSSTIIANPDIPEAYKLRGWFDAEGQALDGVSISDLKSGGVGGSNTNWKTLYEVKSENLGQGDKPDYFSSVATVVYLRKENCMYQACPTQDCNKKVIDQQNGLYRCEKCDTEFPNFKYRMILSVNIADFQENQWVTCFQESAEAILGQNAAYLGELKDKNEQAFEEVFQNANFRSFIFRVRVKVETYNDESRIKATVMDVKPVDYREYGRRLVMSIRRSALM
UniProt P54132: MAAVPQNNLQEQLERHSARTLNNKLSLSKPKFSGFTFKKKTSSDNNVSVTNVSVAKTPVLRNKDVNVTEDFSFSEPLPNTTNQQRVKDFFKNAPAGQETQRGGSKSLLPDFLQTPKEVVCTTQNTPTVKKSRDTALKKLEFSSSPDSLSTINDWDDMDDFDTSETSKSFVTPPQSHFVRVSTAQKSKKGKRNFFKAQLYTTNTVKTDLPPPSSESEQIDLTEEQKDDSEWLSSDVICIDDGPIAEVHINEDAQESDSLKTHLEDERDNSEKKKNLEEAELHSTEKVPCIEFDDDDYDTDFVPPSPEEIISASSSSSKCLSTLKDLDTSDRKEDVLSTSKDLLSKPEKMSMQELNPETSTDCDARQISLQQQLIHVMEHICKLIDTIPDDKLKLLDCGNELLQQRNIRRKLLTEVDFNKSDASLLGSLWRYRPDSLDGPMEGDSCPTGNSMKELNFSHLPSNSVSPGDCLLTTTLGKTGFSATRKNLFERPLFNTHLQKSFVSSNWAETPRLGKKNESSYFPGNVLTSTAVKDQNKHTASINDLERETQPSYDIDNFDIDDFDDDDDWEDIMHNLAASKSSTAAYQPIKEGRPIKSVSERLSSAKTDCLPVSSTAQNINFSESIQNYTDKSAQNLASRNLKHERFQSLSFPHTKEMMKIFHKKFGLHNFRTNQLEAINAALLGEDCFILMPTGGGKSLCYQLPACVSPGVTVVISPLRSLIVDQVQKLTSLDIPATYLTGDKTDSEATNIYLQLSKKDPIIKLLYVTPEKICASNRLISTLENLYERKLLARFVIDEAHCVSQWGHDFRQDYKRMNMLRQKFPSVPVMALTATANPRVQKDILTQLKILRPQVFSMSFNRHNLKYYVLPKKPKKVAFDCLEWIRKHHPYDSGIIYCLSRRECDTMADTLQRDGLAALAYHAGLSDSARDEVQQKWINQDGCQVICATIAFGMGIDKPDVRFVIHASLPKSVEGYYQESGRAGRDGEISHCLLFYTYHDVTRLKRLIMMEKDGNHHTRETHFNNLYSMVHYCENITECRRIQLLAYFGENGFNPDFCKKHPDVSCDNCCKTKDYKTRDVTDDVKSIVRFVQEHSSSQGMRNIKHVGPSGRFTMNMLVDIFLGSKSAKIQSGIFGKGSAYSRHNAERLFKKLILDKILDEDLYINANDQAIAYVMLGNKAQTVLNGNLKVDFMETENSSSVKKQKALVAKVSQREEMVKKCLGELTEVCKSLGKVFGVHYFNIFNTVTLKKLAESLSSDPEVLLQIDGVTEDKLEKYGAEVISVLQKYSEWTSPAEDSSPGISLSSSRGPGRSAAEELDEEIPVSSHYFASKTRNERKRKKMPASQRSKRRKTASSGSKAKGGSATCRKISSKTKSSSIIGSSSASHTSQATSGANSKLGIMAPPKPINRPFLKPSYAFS
FLAG-tagged BLM with motif 1 deleted (P54132, form named): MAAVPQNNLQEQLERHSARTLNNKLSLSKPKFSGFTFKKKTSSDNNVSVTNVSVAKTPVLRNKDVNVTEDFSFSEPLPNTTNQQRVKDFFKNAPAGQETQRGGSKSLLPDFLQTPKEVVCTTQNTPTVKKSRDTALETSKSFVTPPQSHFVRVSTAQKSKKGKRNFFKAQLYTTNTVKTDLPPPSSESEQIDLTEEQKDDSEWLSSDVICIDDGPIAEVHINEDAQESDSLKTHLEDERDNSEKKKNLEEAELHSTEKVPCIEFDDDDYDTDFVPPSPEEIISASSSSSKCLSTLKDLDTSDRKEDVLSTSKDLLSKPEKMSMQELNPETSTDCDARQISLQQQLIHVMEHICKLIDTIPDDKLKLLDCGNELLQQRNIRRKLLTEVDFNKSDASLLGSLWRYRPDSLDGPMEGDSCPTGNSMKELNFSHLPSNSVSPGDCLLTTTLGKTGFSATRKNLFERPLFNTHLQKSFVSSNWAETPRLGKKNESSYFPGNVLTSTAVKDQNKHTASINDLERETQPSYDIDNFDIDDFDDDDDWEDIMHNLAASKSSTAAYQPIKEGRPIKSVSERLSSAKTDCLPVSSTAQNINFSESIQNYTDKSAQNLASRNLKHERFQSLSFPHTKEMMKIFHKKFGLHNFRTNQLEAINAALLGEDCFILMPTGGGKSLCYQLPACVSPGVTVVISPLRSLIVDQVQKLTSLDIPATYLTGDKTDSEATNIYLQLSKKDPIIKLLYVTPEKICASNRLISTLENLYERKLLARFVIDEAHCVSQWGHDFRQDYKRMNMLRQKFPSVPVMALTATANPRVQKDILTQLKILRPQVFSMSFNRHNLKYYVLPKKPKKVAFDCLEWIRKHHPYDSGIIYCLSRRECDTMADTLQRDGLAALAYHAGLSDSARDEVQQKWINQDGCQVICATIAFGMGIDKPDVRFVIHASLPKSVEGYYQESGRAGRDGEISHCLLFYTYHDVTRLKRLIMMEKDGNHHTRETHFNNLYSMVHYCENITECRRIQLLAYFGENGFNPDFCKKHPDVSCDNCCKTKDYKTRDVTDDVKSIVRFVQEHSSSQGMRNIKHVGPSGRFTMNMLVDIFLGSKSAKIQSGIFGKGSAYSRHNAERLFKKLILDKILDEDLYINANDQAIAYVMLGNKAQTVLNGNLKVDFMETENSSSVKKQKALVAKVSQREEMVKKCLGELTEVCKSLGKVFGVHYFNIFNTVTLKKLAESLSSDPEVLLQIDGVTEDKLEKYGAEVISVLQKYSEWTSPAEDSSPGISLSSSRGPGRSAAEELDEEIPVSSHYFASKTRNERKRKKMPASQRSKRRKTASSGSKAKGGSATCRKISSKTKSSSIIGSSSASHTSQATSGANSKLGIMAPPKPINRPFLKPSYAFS
FLAG-tagged BLM with motif 3 deleted (P54132, form named): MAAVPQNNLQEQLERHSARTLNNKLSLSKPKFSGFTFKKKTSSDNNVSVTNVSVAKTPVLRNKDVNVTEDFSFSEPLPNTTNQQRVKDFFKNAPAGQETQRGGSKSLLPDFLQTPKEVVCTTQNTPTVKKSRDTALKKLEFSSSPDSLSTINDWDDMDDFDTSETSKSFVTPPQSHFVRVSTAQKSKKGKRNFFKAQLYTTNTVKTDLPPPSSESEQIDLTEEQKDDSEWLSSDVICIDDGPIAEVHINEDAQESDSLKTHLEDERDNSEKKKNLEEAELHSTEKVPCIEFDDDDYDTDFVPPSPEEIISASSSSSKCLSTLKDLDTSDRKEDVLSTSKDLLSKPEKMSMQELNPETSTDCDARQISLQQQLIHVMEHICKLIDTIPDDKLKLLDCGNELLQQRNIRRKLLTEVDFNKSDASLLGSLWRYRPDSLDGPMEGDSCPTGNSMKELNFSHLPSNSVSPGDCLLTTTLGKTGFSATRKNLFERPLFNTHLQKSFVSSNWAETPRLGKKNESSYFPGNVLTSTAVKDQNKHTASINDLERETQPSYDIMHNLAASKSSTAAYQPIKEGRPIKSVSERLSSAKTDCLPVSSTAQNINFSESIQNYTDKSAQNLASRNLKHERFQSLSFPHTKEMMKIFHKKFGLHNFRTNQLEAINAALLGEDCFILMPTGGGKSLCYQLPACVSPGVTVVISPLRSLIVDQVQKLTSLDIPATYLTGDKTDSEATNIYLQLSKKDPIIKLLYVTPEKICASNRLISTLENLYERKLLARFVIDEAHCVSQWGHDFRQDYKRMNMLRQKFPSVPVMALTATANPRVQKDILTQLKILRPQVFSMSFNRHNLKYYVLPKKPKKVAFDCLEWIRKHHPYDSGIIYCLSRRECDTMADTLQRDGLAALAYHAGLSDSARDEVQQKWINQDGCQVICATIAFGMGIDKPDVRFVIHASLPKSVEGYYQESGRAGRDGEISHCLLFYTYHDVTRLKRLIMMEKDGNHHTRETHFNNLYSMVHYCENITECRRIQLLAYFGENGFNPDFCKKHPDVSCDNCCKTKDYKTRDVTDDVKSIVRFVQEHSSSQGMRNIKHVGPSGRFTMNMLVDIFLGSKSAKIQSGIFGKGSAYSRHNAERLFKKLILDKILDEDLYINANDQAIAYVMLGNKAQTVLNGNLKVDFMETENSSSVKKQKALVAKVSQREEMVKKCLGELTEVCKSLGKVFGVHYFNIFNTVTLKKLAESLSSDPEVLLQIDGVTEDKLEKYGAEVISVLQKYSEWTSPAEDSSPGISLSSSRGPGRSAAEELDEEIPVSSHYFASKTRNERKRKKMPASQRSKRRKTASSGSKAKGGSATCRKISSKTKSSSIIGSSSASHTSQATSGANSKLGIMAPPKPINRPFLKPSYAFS
FLAG-tagged BLM with the TOP3A/RMI1-binding (TR) domain deleted (P54132, form named): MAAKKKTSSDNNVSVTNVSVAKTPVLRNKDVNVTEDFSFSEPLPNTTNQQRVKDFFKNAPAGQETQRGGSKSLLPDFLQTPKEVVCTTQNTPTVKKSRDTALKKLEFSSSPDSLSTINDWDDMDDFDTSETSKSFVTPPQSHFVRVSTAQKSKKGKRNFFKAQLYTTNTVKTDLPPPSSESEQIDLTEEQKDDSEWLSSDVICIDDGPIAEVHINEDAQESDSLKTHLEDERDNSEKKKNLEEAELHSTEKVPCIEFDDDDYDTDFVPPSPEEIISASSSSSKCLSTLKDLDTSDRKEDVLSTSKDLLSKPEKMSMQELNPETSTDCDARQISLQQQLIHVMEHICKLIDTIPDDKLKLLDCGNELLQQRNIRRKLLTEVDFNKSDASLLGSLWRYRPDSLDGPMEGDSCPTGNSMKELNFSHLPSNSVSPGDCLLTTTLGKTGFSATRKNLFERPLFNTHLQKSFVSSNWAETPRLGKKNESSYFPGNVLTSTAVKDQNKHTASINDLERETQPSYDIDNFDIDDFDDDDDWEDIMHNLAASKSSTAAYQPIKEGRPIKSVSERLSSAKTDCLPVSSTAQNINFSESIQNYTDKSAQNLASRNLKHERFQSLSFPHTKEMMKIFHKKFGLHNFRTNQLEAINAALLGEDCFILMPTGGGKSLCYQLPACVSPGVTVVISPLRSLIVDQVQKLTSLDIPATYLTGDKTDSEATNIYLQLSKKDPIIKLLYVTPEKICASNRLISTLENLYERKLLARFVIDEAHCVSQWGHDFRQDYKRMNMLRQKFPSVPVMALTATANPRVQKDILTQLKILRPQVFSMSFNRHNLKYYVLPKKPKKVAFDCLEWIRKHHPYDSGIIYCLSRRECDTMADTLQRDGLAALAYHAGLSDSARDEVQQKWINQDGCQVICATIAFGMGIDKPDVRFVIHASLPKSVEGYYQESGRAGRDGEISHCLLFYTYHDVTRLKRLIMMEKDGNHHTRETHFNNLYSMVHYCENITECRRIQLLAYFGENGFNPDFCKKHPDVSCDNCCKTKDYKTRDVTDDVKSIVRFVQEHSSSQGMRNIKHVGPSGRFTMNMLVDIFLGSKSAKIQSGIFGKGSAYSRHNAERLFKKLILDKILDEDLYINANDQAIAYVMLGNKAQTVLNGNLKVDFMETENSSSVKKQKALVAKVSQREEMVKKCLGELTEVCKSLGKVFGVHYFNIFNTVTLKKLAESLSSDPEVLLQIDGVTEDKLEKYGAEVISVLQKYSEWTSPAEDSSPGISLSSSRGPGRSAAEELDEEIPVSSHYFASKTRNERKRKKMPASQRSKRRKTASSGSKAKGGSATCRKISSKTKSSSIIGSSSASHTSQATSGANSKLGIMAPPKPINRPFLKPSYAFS
UniProt P15927: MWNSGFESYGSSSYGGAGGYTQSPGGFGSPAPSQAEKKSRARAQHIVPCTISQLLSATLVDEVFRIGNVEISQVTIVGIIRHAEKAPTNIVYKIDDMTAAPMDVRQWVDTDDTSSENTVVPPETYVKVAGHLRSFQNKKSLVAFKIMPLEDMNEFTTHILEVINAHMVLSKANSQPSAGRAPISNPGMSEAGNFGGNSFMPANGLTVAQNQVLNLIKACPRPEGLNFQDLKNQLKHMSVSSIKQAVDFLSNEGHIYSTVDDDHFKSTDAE

How the values were obtained:
[1] = biological target: GFP-tagged R41E/Y42F RPA1 (UniProt P27694); assay: co-IP; GFP-Trap magnetic agarose beads, lysates of transfected 293FT cells, Benzonase-treated, 200 mM NaCl, 2 mM EDTA, 2 h at 4 °C, western blotting
GFP-tagged WT RPA1 = GFP-tagged WT RPA1 (UniProt P27694); assay: as above
[2] = biological target: BLM motif 1 peptide, N-terminally biotinylated (human); assay: pull-down; biotinylated peptides on streptavidin beads with in vitro translated heterotrimeric RPA (WT or R41E/Y42F RPA1) in rabbit reticulocyte lysate, Benzonase-treated, 200 mM NaCl, 2 mM EDTA; only the target purified
[3] = biological target: T1, BLM motif 3 peptide, N-terminally biotinylated (human); assay: as above
T1 sequence (peptide, biotin on the N-terminus): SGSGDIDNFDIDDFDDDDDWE

[4] = biological target: T2, RMI1 motif 5 peptide, N-terminally biotinylated (human); assay: as above
T2 sequence (peptide, biotin on the N-terminus): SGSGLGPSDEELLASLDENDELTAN

[5] = biological target: T3, BLM motif 2 peptide, native (not phosphorylated), N-terminally biotinylated (human); assay: pull-down; biotinylated peptides on streptavidin Dynabeads M-280 incubated with clarified HeLa nuclear extract, 4 °C, 2 h; eluates analysed by western blotting; only the target purified
T3 sequence (peptide, biotin on the N-terminus): SGSGDYDTDFVPPSPEEII

[6] = biological target: BLM motif 1 peptide, N-terminally biotinylated (human); assay: as above
[7] = biological target: T1, BLM motif 3 peptide, N-terminally biotinylated (human); assay: as above
[8] = biological target: T4, RMI1 motif 6 peptide, N-terminally biotinylated (human); assay: as above
T4 sequence (peptide, biotin on the N-terminus): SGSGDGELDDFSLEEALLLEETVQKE

[9] = biological target: T2, RMI1 motif 5 peptide, N-terminally biotinylated (human); assay: as above

Question: What does the source list for “BLM, endogenous in 293FT cells (from UniProt P54132 1-1417)”?
Answer: binding [1]: no binding; binding (GFP-tagged WT RPA1): binds

Question: “FLAG-tagged BLM with motif 1 deleted (from UniProt P54132 1-1417)” was tested. Which binding (GFP-tagged WT RPA1) did it give?
Answer: Its binding is “binds”.

Question: Which binding (GFP-tagged WT RPA1) does the source give for “FLAG-tagged BLM with motif 3 deleted (from UniProt P54132 1-1417)” here?
Answer: The binding was “binds”.

Question: For “FLAG-tagged BLM with the TOP3A/RMI1-binding (TR) domain deleted (from UniProt P54132 1-1417)”, which binding (GFP-tagged WT RPA1) is on record?
Answer: The binding was “binds”.

Question: With “FLAG-tagged BLM with the TR domain and motifs 1 and 3 deleted (from UniProt P54132 1-1417)” as the substance, how does the binding (GFP-tagged WT RPA1) read?
Answer: Its binding is “binds weakly”.

Question: Which binding (GFP-tagged WT RPA1) does the source give for “FLAG-tagged BLM, wild type (from UniProt P54132 1-1417)” here?
Answer: Its binding is “binds”.

Question: With “Full-length BLM with motif 2 deleted (from UniProt P54132 1-1417)” as the substance, how does the binding (GFP-tagged WT RPA1) read?
Answer: The binding was “binds”.

Question: For “RPA1 R41E/Y42F, in vitro translated as part of the heterotrimeric RPA1-RPA2-RPA3 complex (from UniProt P27694 1-616)”, which binding [2] is on record?
Answer: The binding was “no binding”.

Question: What about the binding [3] of the same substance?
Answer: The binding was “no binding”.

Question: And the binding [4]?
Answer: Its binding is “no binding”.

Question: Which results are given for “RPA1 WT, in vitro translated as part of the heterotrimeric RPA1-RPA2-RPA3 complex (from UniProt P27694 1-616)”?
Answer: binding [2]: binds; binding [3]: binds; binding [4]: binds

Question: With “RPA1 subunit of RPA from HeLa nuclear extracts (from UniProt P27694 1-616)” as the substance, how does the binding [5] read?
Answer: The binding was “no binding”.

Question: What about the binding [6] of the same substance?
Answer: Its binding is “binds”.

Question: And the binding [7]?
Answer: Its binding is “binds”.

Question: And the binding [8]?
Answer: Its binding is “no binding”.

Question: What about the binding [9] of the same substance?
Answer: Its binding is “binds”.

Question: How did the binding [5] turn out when “RPA2 subunit of RPA from HeLa nuclear extracts (from UniProt P15927 1-270)” was run?
Answer: Its binding is “no binding”.

Question: What about the binding [8] of the same substance?
Answer: Its binding is “no binding”.
